# Publication PMC8476856 (Developmental cell, 2021)
# B1: recombinant human α1A∆-tail/βIII tubulin (complex)
# chain 1: [letters of about 450 residues not shown]
# chain 2: MREIVHIQAGQCGNQIGAKFWEVISDEHGIDPSGNYVGDSDLQLERISVYYNEASSHKYVPRAILVDLEPGTMDSVRSGAFGHLFRPDNFIFGQSGAGNNWAKGHYTEGAELVDSVLDVVRKECENCDCLQGFQLTHSLGGGTGSGMGTLLISKVREEYPDRIMNTFSVVPSPKVSDTVVEPYNATLSIHQLVENTDETYCIDNEALYDICFRTLKLATPTYGDLNHLVSATMSGVTTSLRFPGQLNADLRKLAVNMVPFPRLHFFMPGFAPLTARGSQQYRALTVPELTQQMFDAKNMMAACDPRHGRYLTVATVFRGRMSMKEVDEQMLAIQSKNSSYFVEWIPNNVKVAVCDIPPRGLKMSSTFIGNSTAIQELFKRISEQFTAMFRRKAFLHWYTGEGMDEMEFTEAESNMNDLVSEYQQYQDATAEEEGEMYEDDEEESEAQGPK
# Target: the molecule itself
# Assay: in vitro microtubule dynamics assay
protein,measurement,value
B1,koff,0.35 s⁻¹
same,kon,8.5e+06 M⁻¹ s⁻¹
